Results published in ChEMBL document CHEMBL4888484, “Replenishing the malaria drug discovery pipeline: Screening and hit evaluation of the MMV Hit Generation Library 1 (HGL1) against asexual blood stage Plasmodium falciparum ,using a nano luciferase reporter read-out” (2022).
Among all 150,000 compounds or so, about 540 (0.36%) showed an effect of 50% or more. The list shows a part of the results.

tested on: Plasmodium falciparum; assay: Primary screen in NF54 nanoGlo assay, in single point, at 2uM, 72h; a lower Z score goes with more inhibition; format: functional, Erythrocyte; conditions: timepoint 72 hour

Compound	% Inhibition [%]	Z score
CCOCC(=O)N[C@@H](C(N)=O)c1cccc(Br)c1	0	-0.09
O=C(Nc1nc2c(s1)CN(S(=O)(=O)Cc1cccc(F)c1)CC2)c1ccoc1	5	-0.64
CC(Cn1cccn1)C(=O)N1C[C@H]2C[C@H](O)[C@@H](O)C[C@H]2C1 (stereo partly specified)	-7	1.04
CN(C)c1ccc(-c2noc(CCN3C(=O)c4ccccc4C3=O)n2)cc1	-10	1.4
CN(Cc1ccccc1)C(=O)c1cc(=O)c(OCc2ccccc2)c[nH]1	2	-0.32
O=S(=O)(c1ccc(-c2noc(C3CCCCC3)n2)cc1)N1CCCCC1	-3	0.54
O=C(c1ccoc1)N1CC(Nc2ccncn2)C1	1	-0.11
CCCc1nnc2sc(CCOc3ccccc3)nn12	-2	0.31
CCn1ncc(C#N)c1NS(=O)(=O)c1cccs1	-6	0.69
Cc1cncc(CCNC(=O)Nc2nc(C)c(Cc3ccc(F)cc3)s2)n1	-7	1.09
COc1ccc(OC)c(S(=O)(=O)Nc2ccc3c(c2)OC2(CCCC2)O3)c1	-6	0.66
C[C@H](NC(=O)c1cccc(-c2ncccc2N)c1)c1nc(C2CC2)no1	-18	3.13
CCc1onc(C)c1CS(=O)(=O)c1ccc2c(c1)CCC2	-5	0.84
O=C1OC2CC1N(C(=O)Nc1c(F)cccc1F)C2 (stereo unspecified)	-13	2.43
Cc1cncc(C=Cc2cccc(Cl)c2Cl)n1	7	-1.14
Nc1nc(CCC(=O)N2CC(c3cccnc3)C2)cs1	-1	0.23
O=C(c1n[nH]c2c1CCCC2)N1CCC([C@@H](O)CCc2ccccc2)CC1	4	-0.49
Cc1ccc(S(=O)(=O)Nc2ccc(Br)cc2C(=O)Nc2ccc(Oc3ccc(Br)c4ccccc34)c(Cl)c2)cc1	36	-4.59
Cc1sc(-c2noc(C3CCC3)n2)cc1NC(=O)c1ccc2c(c1)OCO2	0	0.05
CC[C@]1(O)CCN(C(=O)c2cnc(N3CCCCC3)nc2C)C[C@@H]1O	4	-0.58
Cc1ccc(CNC(=O)c2ccc(NS(=O)(=O)c3ccc(-c4ccc(F)cc4)cc3)cc2)o1	1	-0.17
Cc1ccc(NC(=O)N2CC[C@H](N(CCN3CCCC3)S(=O)(=O)N(C)C)C2)c(C)c1	-11	1.37
Cc1ccc([C@H]2C(=O)N(C3CCC(C)CC3)CC(=O)N2C2CCCCCCC2)cc1 (stereo partly specified)	-6	0.82
